Data taken from the supplement of paper PMC8285479.
Where a name gives a salt, the structure may show the parent alone. ± gives the standard deviation of the averaged measurements. In all, about 1,900 compounds were measured (“normalised cell viability (NPI; 0 = phenylarsine oxide control, 1 = DMSO control)”: median about 1, lowest 2% from about 0.039 on). The list shows a part of the results.

Test system: NCI-H1944
Experiment: normalised cell viability (NPI; 0 = phenylarsine oxide control, 1 = DMSO control) (fraction of DMSO control); NCI-H1944 is a non-small cell lung cancer line; higher = more viable cells (less compound toxicity)
Details: 6 days
[1] = glucocorticoid arm: hydrocortisone 2.75 uM co-treatment, compound 1 µM
[2] = glucocorticoid arm: hydrocortisone 2.75 uM co-treatment, compound 5 µM
[3] = glucocorticoid arm: hydrocortisone 2.75 uM pre-treated 2 days and continued, compound 1 µM
[4] = glucocorticoid arm: hydrocortisone 2.75 uM pre-treated 2 days and continued, compound 5 µM
[5] = glucocorticoid arm: vehicle, compound 1 µM
[6] = glucocorticoid arm: vehicle, compound 5 µM
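Note: CTB read-out in 384-well plates, mean of triplicate wells, normalised per plate against 1 µM phenylarsine oxide and 0.1% DMSO, compounds added 24 h after seeding.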

c1ccc(C(NCCNC(c2ccccc2)c2ccccc2)c2ccccc2)cc1
normalised cell viability [1]: 1.023 ± 0.0058
normalised cell viability [2]: 1.027 ± 0.0058
normalised cell viability [3]: 1.01 ± 0.01
normalised cell viability [4]: 1.05 ± 0.017
normalised cell viability [5]: 1.007 ± 0.0058
normalised cell viability [6]: 1.03 ± 0.01

Cc1ccc(NC(=O)c2ccc(CN3CCN(C)CC3)cc2)cc1Nc1nc(-c2cccnc2)cs1 [Masitinib (AB1010)]
normalised cell viability [1]: 1.04 ± 0.015
normalised cell viability [2]: 1.05 ± 0.02
normalised cell viability [3]: 1.03 ± 0.01
normalised cell viability [4]: 1.05 ± 0.036
normalised cell viability [5]: 0.9963 ± 0.0035
normalised cell viability [6]: 0.995 ± 0.0044

COc1nc(C)nc(Cl)c1NC1=NCCN1 [Moxonidine hydrochloride]
normalised cell viability [1]: 0.986 ± 0.012
normalised cell viability [2]: 0.991 ± 0.032
normalised cell viability [3]: 0.999 ± 0.0017
normalised cell viability [4]: 0.986 ± 0.085
normalised cell viability [5]: 0.9973 ± 0.0031
normalised cell viability [6]: 0.9957 ± 0.0021

NCCS(=O)(=O)O [Taurine]
normalised cell viability [1]: 1.001 ± 0.0078
normalised cell viability [2]: 1.02 ± 0.015
normalised cell viability [3]: 1.02 ± 0.025
normalised cell viability [4]: 1.02 ± 0.015
normalised cell viability [5]: 0.99033 ± 0.00058
normalised cell viability [6]: 0.989 ± 0.003

COc1cc2nc(N3CCN(C(=O)c4ccco4)CC3)nc(N)c2cc1OC [Prazosin hydrochloride]
normalised cell viability [1]: 0.9863 ± 0.0076
normalised cell viability [2]: 0.948 ± 0.015
normalised cell viability [3]: 1.02 ± 0.011
normalised cell viability [4]: 1.04 ± 0.015
normalised cell viability [5]: 1.01 ± 0.01
normalised cell viability [6]: 0.827 ± 0.03

N#CC(C#N)=C(N)/C(C#N)=C/c1ccc(O)cc1 [Tyrphostin AG 112]
normalised cell viability [1]: 1.001 ± 0.0081
normalised cell viability [2]: 1.02 ± 0.01
normalised cell viability [3]: 1.01 ± 0.023
normalised cell viability [4]: 1.02 ± 0.029
normalised cell viability [5]: 1.002 ± 0.0072
normalised cell viability [6]: 1.001 ± 0.0085

CCN(CC)CCNC(=O)c1cc(S(C)(=O)=O)ccc1OC [Tiapride hydrochloride]
normalised cell viability [1]: 1 ± 0.0089
normalised cell viability [2]: 1.01 ± 0.02
normalised cell viability [3]: 1.03 ± 0.021
normalised cell viability [4]: 1.005 ± 0.0081
normalised cell viability [5]: 0.9997 ± 0.009
normalised cell viability [6]: 0.998 ± 0.0035

O=C(CCCN1CC=C(n2c(=O)[nH]c3ccccc32)CC1)c1ccc(F)cc1 [Droperidol]
normalised cell viability [1]: 0.986 ± 0.023
normalised cell viability [2]: 0.978 ± 0.015
normalised cell viability [3]: 0.989 ± 0.002
normalised cell viability [4]: 0.958 ± 0.013
normalised cell viability [5]: 0.9693 ± 0.0015
normalised cell viability [6]: 0.9743 ± 0.0059

Cc1cccc(/C=C/c2ccccc2)n1
normalised cell viability [1]: 0.9943 ± 0.0055
normalised cell viability [2]: 1.02 ± 0.011
normalised cell viability [3]: 1.01 ± 0.027
normalised cell viability [4]: 1.02 ± 0.016
normalised cell viability [5]: 0.995 ± 0.005
normalised cell viability [6]: 0.9843 ± 0.009

CCn1cc(C(=O)O)c(=O)c2ccc(C)nc21 [Nalidixic acid sodium salt]
normalised cell viability [1]: 0.9927 ± 0.0095
normalised cell viability [2]: 1.01 ± 0.02
normalised cell viability [3]: 1.005 ± 0.0087
normalised cell viability [4]: 0.897 ± 0.14
normalised cell viability [5]: 1.001 ± 0.0081
normalised cell viability [6]: 1.005 ± 0.0092

O=c1[nH]c2ccccc2c2ccccc12 [6(5H)-Phenanthridinone]
normalised cell viability [1]: 0.982 ± 0.0078
normalised cell viability [2]: 1.02
normalised cell viability [3]: 0.794 ± 0.34
normalised cell viability [4]: 1.01 ± 0.01
normalised cell viability [5]: 0.9943 ± 0.0045
normalised cell viability [6]: 0.9777 ± 0.0097

C#CCN(C)Cc1ccccc1 [Pargyline hydrochloride]
normalised cell viability [1]: 0.9987 ± 0.0023
normalised cell viability [2]: 0.972 ± 0.015
normalised cell viability [3]: 1.02 ± 0.021
normalised cell viability [4]: 1 ± 0.018
normalised cell viability [5]: 0.996 ± 0.013
normalised cell viability [6]: 0.99 ± 0.012

CC(Cc1ccccc1)Nc1ncnc2c1ncn2C1OC(CO)C(O)C1O (stereo not drawn) [R(-)-N6-(2-Phenylisopropyl)adenosine]
normalised cell viability [1]: 0.998 ± 0.002
normalised cell viability [2]: 1.01 ± 0.018
normalised cell viability [3]: 0.9997 ± 0.0096
normalised cell viability [4]: 1.03 ± 0.031
normalised cell viability [5]: 1.013 ± 0.0058
normalised cell viability [6]: 1.02 ± 0.017

N=C(N)SCCc1cccc(CCSC(=N)N)c1 [1,3-PBIT dihydrobromide]
normalised cell viability [1]: 0.9893 ± 0.0087
normalised cell viability [2]: 0.91 ± 0.025
normalised cell viability [3]: 1.02 ± 0.021
normalised cell viability [4]: 0.986 ± 0.013
normalised cell viability [5]: 0.984 ± 0.0061
normalised cell viability [6]: 0.979 ± 0.016

O=c1cc(-c2ccc(O)cc2)oc2cc(O)cc(O)c12 [Apigenin]
normalised cell viability [1]: 0.9913 ± 0.0085
normalised cell viability [2]: 1.007 ± 0.0058
normalised cell viability [3]: 0.996 ± 0.0069
normalised cell viability [4]: 0.989 ± 0.016
normalised cell viability [5]: 0.999 ± 0.011
normalised cell viability [6]: 0.994 ± 0.0044

CC(C)n1nc(-c2cc3cc(O)ccc3[nH]2)c2c(N)ncnc21
normalised cell viability [1]: 0.65 ± 0.059
normalised cell viability [2]: 0.327 ± 0.015
normalised cell viability [3]: 0.646 ± 0.013
normalised cell viability [4]: 0.577 ± 0.11
normalised cell viability [5]: 0.683 ± 0.054
normalised cell viability [6]: 0.0709 ± 0.013

NC(=O)N1c2ccccc2C=Cc2ccccc21 [Carbamazepine]
normalised cell viability [1]: 0.9957 ± 0.0038
normalised cell viability [2]: 1 ± 0.017
normalised cell viability [3]: 0.993 ± 0.0062
normalised cell viability [4]: 1.01 ± 0.017
normalised cell viability [5]: 0.983 ± 0.0089
normalised cell viability [6]: 0.9943 ± 0.0045

N=C1Sc2ccccc2C2=NCCCN12
normalised cell viability [1]: 1.017 ± 0.0058
normalised cell viability [2]: 1.01 ± 0.031
normalised cell viability [3]: 1.02 ± 0.011
normalised cell viability [4]: 0.86 ± 0.28
normalised cell viability [5]: 1.002 ± 0.0068
normalised cell viability [6]: 1.02 ± 0.015

O=C(CCCCCCNC(=O)c1cnc(N(c2ccccc2)c2ccccc2)nc1)NO [Rocilinostat (ACY-1215)]
normalised cell viability [1]: 0.9393 ± 0.0064
normalised cell viability [2]: 0.966 ± 0.011
normalised cell viability [3]: 0.944 ± 0.015
normalised cell viability [4]: 0.945 ± 0.018
normalised cell viability [5]: 0.9923 ± 0.0021
normalised cell viability [6]: 0.918 ± 0.0096

O=C(CCCCCCNC(=O)c1cnc(N(c2ccccc2)c2ccccc2)nc1)NO
normalised cell viability [1]: 0.9803 ± 0.0098
normalised cell viability [2]: 0.922 ± 0.018
normalised cell viability [3]: 0.996 ± 0.021
normalised cell viability [4]: 0.9343 ± 0.0021
normalised cell viability [5]: 1.01 ± 0.01
normalised cell viability [6]: 0.9873 ± 0.0071

CN(C)CCN(Cc1cccs1)c1ccccn1 [Methapyrilene hydrochloride]
normalised cell viability [1]: 0.99 ± 0.013
normalised cell viability [2]: 1.01 ± 0.02
normalised cell viability [3]: 1.003 ± 0.0058
normalised cell viability [4]: 1.06 ± 0.076
normalised cell viability [5]: 0.9977 ± 0.0021
normalised cell viability [6]: 0.9973 ± 0.0031

CC(C)CC(=O)Nc1n[nH]c2c1CN(C(=O)C1CCN(C)CC1)C2(C)C
normalised cell viability [1]: 0.8357 ± 0.0074
normalised cell viability [2]: 0.369 ± 0.0055
normalised cell viability [3]: 0.968 ± 0.0056
normalised cell viability [4]: 0.962 ± 0.036
normalised cell viability [5]: 0.365 ± 0.023
normalised cell viability [6]: 0.0459 ± 0.004

CCCCCCCCCCCCCCCc1cccc(OCC)c1C(=O)Nc1ccc(Cl)c(C(F)(F)F)c1
normalised cell viability [1]: 1.01 ± 0.014
normalised cell viability [2]: 1.01 ± 0.011
normalised cell viability [3]: 1.01 ± 0.02
normalised cell viability [4]: 1.02 ± 0.016
normalised cell viability [5]: 0.9997 ± 0.0097
normalised cell viability [6]: 1 ± 0.0054

CCc1cccc(N(C)C(=N)Nc2cccc3ccccc23)c1
normalised cell viability [1]: 0.999 ± 0.027
normalised cell viability [2]: 0.918 ± 0.012
normalised cell viability [3]: 1.006 ± 0.0069
normalised cell viability [4]: 0.967 ± 0.013
normalised cell viability [5]: 1.003 ± 0.0064
normalised cell viability [6]: 1.01 ± 0.01

CC(C)NCC(O)COc1ccc(COCCOC(C)C)cc1 (configuration not stated) [Bisoprolol hemifumarate salt]
normalised cell viability [1]: 1.01 ± 0.01
normalised cell viability [2]: 1.01 ± 0.016
normalised cell viability [3]: 1.02 ± 0.011
normalised cell viability [4]: 1.06 ± 0.07
normalised cell viability [5]: 1.01 ± 0.01
normalised cell viability [6]: 1.03 ± 0.017

CC(N)(C(=O)O)c1ccc(C(=O)O)cc1 (racemic) [(±)-alpha-Methyl-4-carboxyphenylglycine]
normalised cell viability [1]: 0.983 ± 0.013
normalised cell viability [2]: 0.958 ± 0.014
normalised cell viability [3]: 0.995 ± 0.025
normalised cell viability [4]: 1.01 ± 0.06
normalised cell viability [5]: 0.9813 ± 0.0038
normalised cell viability [6]: 0.9883 ± 0.0096

Nc1nc(Cl)nc2c1ncn2[C@@H]1O[C@H](CO)[C@@H](O)[C@@H]1F [Clofarabine]
normalised cell viability [1]: 0.124 ± 0.015
normalised cell viability [2]: 0.146 ± 0.0052
normalised cell viability [3]: 0.341 ± 0.017
normalised cell viability [4]: 0.302 ± 0.017
normalised cell viability [5]: 0.0363 ± 0.0032
normalised cell viability [6]: 0.0483 ± 0.0032
